Results as given in article PMC12003892.
Numbering of substitutions follows the chain as printed. Where two headings read alike, the source gives them in different places. No constants are given. Whether binding was seen depends on the method and setting. For part of these data: In cells and extracts the contact can be indirect. Some results given as binding are weak or reduced against the parent protein; the word gives no strength. For part of these data: Where a sequence is shown, tags or fusion partners need not be part of it. Values belong to the molecule of their own block, whether it stands above or below them.

By UniProt entry, the sequences of proteins in these tests, tags left out. Residues count along the entry.
UniProt Q9H2K0, residues 32-278: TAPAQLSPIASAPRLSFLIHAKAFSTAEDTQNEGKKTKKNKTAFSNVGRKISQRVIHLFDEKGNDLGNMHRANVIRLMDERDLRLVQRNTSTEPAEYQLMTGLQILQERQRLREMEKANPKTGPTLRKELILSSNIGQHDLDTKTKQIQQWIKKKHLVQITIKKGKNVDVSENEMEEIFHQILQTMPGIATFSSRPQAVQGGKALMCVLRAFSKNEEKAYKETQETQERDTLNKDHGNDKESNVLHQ
UniProt Q96CB9, residues 26-384: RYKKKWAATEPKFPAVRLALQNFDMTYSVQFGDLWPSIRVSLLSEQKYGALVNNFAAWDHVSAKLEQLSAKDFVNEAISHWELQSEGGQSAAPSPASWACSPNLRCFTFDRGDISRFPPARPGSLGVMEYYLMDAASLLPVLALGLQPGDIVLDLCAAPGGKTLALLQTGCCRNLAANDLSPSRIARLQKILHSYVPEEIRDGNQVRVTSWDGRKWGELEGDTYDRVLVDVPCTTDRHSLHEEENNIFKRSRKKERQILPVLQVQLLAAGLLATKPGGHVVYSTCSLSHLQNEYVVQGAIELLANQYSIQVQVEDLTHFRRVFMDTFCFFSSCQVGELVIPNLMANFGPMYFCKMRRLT
UniProt Q8WVM0, residues 28-346: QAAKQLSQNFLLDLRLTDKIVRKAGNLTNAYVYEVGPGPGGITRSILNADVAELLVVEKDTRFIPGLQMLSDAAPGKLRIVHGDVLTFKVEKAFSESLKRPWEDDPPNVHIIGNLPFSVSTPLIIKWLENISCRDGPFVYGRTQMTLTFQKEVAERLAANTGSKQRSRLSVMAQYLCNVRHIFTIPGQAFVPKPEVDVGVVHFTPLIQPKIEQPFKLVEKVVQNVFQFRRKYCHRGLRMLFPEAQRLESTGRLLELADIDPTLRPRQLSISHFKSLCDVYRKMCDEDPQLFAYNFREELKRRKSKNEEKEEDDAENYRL

How the values were obtained:
[1] = molecular target: T1, MTG3^FLAG (C-terminally FLAG-tagged MTG3) (human) (UniProt Q8NC60); assay: co-IP; anti-FLAG M2 Affinity Gel, 1 h, with lysed mitochondria or mitoplasts of HEK293 lines expressing the FLAG-tagged bait; 20 mM Tris-HCl or HEPES-KOH pH 7.4, 100 mM NH4Cl or KCl, 20 mM MgCl2, 10% glycerol, 1% Triton X-100, in some cases 0.5 mM GppNHp; eluted with FLAG peptides; western blotting
T1 sequence: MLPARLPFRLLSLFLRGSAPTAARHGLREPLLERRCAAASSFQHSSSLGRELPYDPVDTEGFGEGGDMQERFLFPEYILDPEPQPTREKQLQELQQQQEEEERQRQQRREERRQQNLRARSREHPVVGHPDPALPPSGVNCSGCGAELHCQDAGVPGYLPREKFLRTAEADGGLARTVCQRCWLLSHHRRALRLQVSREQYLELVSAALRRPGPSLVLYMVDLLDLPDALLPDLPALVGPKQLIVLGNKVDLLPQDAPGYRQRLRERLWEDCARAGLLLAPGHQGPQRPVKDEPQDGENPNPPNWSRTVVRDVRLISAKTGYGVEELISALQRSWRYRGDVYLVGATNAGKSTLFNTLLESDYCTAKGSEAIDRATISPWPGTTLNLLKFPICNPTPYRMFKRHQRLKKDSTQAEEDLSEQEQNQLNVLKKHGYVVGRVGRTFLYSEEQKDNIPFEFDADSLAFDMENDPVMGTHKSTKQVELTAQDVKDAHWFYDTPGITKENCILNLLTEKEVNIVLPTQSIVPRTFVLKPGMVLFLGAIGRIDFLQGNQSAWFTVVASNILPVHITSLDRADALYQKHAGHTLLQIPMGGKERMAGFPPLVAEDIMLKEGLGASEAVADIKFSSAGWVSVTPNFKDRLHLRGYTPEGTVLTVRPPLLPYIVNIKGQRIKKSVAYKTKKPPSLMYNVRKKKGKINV

[2] = molecular target: T1, MTG3^FLAG (C-terminally FLAG-tagged MTG3) (human); assay: cryo-EM structure; native mtSSU complexes from lysed mitoplasts isolated by FLAG-immunoprecipitation of MTG3^FLAG, eluate crosslinked with 0.15% glutaraldehyde; single-particle cryo-EM, states A-G
ERAL1^FLAG (human) [3] = molecular target: T2, ERAL1^FLAG (human) (UniProt O75616); assay: co-IP; anti-FLAG M2 Affinity Gel, 1 h, with lysed mitochondria or mitoplasts of HEK293 lines expressing the FLAG-tagged bait; 20 mM Tris-HCl or HEPES-KOH pH 7.4, 100 mM NH4Cl or KCl, 20 mM MgCl2, 10% glycerol, 1% Triton X-100, in some cases 0.5 mM GppNHp; eluted with FLAG peptides; western blotting
T2 sequence: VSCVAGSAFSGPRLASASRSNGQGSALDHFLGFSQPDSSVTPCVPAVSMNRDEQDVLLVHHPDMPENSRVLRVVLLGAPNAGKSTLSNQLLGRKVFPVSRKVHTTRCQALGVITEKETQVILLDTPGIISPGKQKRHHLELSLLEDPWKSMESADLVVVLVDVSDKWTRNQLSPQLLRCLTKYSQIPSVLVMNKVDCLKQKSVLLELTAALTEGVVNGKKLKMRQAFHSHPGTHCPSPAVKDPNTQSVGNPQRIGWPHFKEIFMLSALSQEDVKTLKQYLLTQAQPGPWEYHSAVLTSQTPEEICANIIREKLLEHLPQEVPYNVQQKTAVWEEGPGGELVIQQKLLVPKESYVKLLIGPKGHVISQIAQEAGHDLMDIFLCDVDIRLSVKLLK

MTG3-G499P^FLAG (human) [4] = molecular target: T3, MTG3-G499P^FLAG (human) (UniProt Q8NC60); assay: as above
T3 sequence: T1 sequence with G499P

[5] = molecular target: T1, MTG3^FLAG (C-terminally FLAG-tagged MTG3) (human); assay: as above; remark: listed apart in the source
MTG3-G499P^FLAG (human) [6] = molecular target: T3, MTG3-G499P^FLAG (human); assay: as above; remark: listed apart in the source
ERAL1^FLAG (human) [7] = molecular target: T2, ERAL1^FLAG (human); assay: as above; remark: listed apart in the source
mtIF3^FLAG (human) = mtIF3^FLAG (human) (UniProt Q9H2K0); assay: as above

Molecule: NSUN4 (from UniProt Q96CB9 26-384) (enzyme)
binding [1]: no binding

B1: ERAL1 (endogenous) (protein, UniProt O75616 44-437)
chain: T2 sequence
binding [5]: binds
binding (MTG3-G499P^FLAG (human) [6]): binds

B2: MTG3 (endogenous) (protein, UniProt Q8NC60 1-698)
chain: T1 sequence
binding (ERAL1^FLAG (human) [7]): binds
binding (mtIF3^FLAG (human)): binds

Now from value to molecule:

binding [2]: binds
binding [1]: binds
Molecule: mtIF3 (endogenous) (from UniProt Q9H2K0 32-278)

binding [2]: binds
binding (ERAL1^FLAG (human) [3]): binds
binding [1]: binds
binding (MTG3-G499P^FLAG (human) [4]): binds
Molecule: TFB1M (from UniProt Q8WVM0 28-346) (enzyme)

binding [2]: binds
binding (mtIF3^FLAG (human)): binds
binding [5]: binds
binding (MTG3-G499P^FLAG (human) [6]): no binding
B3: mtRBFA (protein, UniProt Q8N0V3 42-343)
chain: KNWLKKFASKTKKKVWYESPSLGSHSTYKPSKLEFLMRSTSKKTRKEDHARLRALNGLLYKALTDLLCTPEVSQELYDLNVELSKVSLTPDFSACRAYWKTTLSAEQNAHMEAVLQRSAAHMRHLLMSQQTLRNVPPIVFVQDKGNAALAELDQLLAVADFGPRDERDNFVQNDFRDPDAPQPCGTTEPTTSSSLCGIDHEALNKQIMEYKRRKDKGLGGLVWQGQVAELTTQMKKGRKRAKPRLEQDSSLKSYLSGEEVEDDLDLVGAPEYECYAPDTEELEAERGGGRTEDGHSCGASRE

binding [2]: binds
binding (mtIF3^FLAG (human)): binds
binding [5]: binds
B4: mtIF2 (protein, UniProt P46199 30-727)
chain: LRQWRHGFSSAYPVWTAQLCAWPWPTDVLTGAALSQYRLLVTKKEEGPWKSQLSSTKSKKVVEVWIGMTIEELARAMEKNTDYVYEALLNTDIDIDSLEADSHLDEVWIKEVITKAGMKLKWSKLKQDKVRKNKDAVRRPQADPALLTPRSPVVTIMGHVDHGKTTLLDKFRKTQVAAVETGGITQHIGAFLVSLPSGEKITFLDTPGHAAFSAMRARGAQVTDIVVLVVAADDGVMKQTVESIQHAKDAQVPIILAVNKCDKAEADPEKVKKELLAYDVVCEDYGGDVQAVPVSALTGDNLMALAEATVALAEMLELKADPNGPVEGTVIESFTDKGRGLVTTAIIQRGTLRKGSVLVAGKCWAKVRLMFDENGKTIDEAYPSMPVGITGWRDLPSAGEEILEVESEPRAREVVDWRKYEQEQEKGQEDLKIIEEKRKEHKEAHQKAREKYGHLLWKKRSILRFLERKEQIPLKPKEKRERDSNVLSVIIKGDVDGSVEAILNIIDTYDASHECELELVHFGVGDVSANDVNLAETFDGVIYGFNVNAGNVIQQSAAKKGVKIKLHKIIYRLVEDLQEELSSRLPCAVEEHPVGEASILATFSVTEGKKKVPVAGCRVQKGQLEKQKKFKLTRNGHVIWKGSLTSLKHHKDDISIVKTGMDCGLSLDEDNMEFQVGDRIVCYEEKQIQAKTSWDPGF
